From PubChem BioAssay AID1508623 (National Center for Advancing Translational Sciences (NCATS), 2021)
About 450 (0.94%) of roughly 48,000 compounds were called active. Roughly 19% stayed inconclusive and do not appear here. Calls come from the whole dose curve; as a rule, active = well fitted inhibition curve with a large enough effect; inconclusive = small, poorly fitted or top-dose-only effect; inactive = no such curve, though single readings can be large or run the other way. Some of the results follow.

assay: Primary qHTS for Identification of Small Molecule Inhibitors of Huntingtin Promoter Activity; conditions: HEK293 HTT promoter firefly luciferase reporter (activity 0% = vehicle and -100% = no light), 24 h; series mostly up to 57.5 µM; activity change, negative = inhibition: at the top concentration; note: nearly all actives have a fitted effect of over 50% in size
Summary of the method: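 HEK293 luciferase promoter-reporter cells (2,500/well) plated 24 h, then compounds added at up to 57.5 uM final for 24 h at 37 °C. Firefly luminescence by Dual-Glo, normalized to vehicle (0%) and zero RLU (-100%).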

Activity change, negative = inhibition, inactive:
COC(=O)c1cnc(N2CCN(c3ccccc3OC)CC2)c2ccccc12 -2.87%, CCOC(=O)c1sc2ccccc2c1S(=O)(=O)NCc1ccc(F)cc1 -8.74%, O=C(NCc1ccccc1Cl)c1ccc(CSCc2cccc(F)c2)o1 -14.6%, Nc1nc(N)nc(-c2cc(Cl)ccc2Cl)n1, Cc1ccc(NC(c2nnc(-c3ccccc3)o2)c2ccccc2F)c([N+](=O)[O-])c1 (configuration not stated) 30.8%, CCN1CCCC1CNC(=O)c1cc(S(=O)(=O)CC)c(N)cc1OC (configuration not stated), Cc1ccc(-n2nnnc2CNC(=O)c2ccccc2F)cc1C 12.3%, O=C(O)CCn1cnc2onc(-c3ccccc3Cl)c2c1=O -16.5%, Cc1cccn2c(=O)cc(COc3ccc(NC(=O)c4cccc(F)c4)cc3)nc12 -4.7%, CCC1CCCCN1C(=O)Cn1c(=O)n(CCCCCC(=O)NCc2ccc(F)cc2)c(=O)c2sccc21 (configuration not stated) -12.8%, O=C(Nc1c(C(=O)Nc2cccc(C(F)(F)F)c2)oc2ccccc12)c1cc(=O)c2ccccc2o1 -15.6%, CCc1cccc(NC(=O)Cn2cc(C(=O)c3ccncc3)c(=O)c3cc(C)c(C)cc32)c1 -26.4%, O=c1[nH]c(-c2ccc(C(F)(F)F)cc2)nc2c1CSCC2 -0.955%, O=C(Cc1cccs1)NC1CC(=O)N(c2ccc(Cl)cc2)C1 (configuration not stated) 0.697%, CC(C)Sc1ncc(Cl)c(C(=O)N(Cc2ccc(F)cc2)C2CCS(=O)(=O)C2)n1 (configuration not stated) -21.2%, Cc1ccc(-c2nn3c(-c4ccccc4)nnc3c3ccccc23)cc1 -9.23%, COc1ccc2[nH]c(S(=O)Cc3ncc(C)c(OC)c3C)nc2n1 (configuration not stated) -0.304%, Cc1cccc(C(=O)OCc2cc(=O)n3nc(C4CCCCC4)sc3n2)c1 -3.55%, COc1ccc(N2Cc3cccc(C(=O)Nc4ccc(C)c(C)c4)c3C2=O)cc1 3.13%, O=C(NCCC1=CCCCC1)c1ccc2c(c1)N(Cc1ccccc1F)C(=O)c1ccccc1S2(=O)=O -12.9%, Cc1ccc(NC(=O)CN2C(=O)C(C)(C)c3ccccc32)cc1 -11.7%, CCOc1ccc(N2CC(NC(=O)Cc3ccccc3)CC2=O)cc1 (configuration not stated) -0.528%, COc1ccc(N2CC(NC(=O)COc3ccccc3C)CC2=O)cc1OC (configuration not stated) -3.45%, CCOC(=O)c1cc(-c2ccccc2)n(-c2cccc(C(=O)N(CC)c3ccccc3)c2)c1C -17.1%, Cc1c2cnn(-c3ccccc3)c(=O)c2c(C)n1C(C)C(=O)Nc1ccc(Br)cc1F (configuration not stated) 14.2%, Cc1ccc(-n2c(SCC(=O)Nc3cccc(F)c3)nc3c(oc4ccccc43)c2=O)cc1C -6.93%, COc1ccc(N2CCN(C(=O)NCc3noc4ccccc34)CC2)cc1 -6.02%, Cc1cc(C)cc(-n2ccn3c(CC(C)(C)CC(=O)O)nnc3c2=O)c1 -13.1%, Cc1ccc2oc3c(c(=O)c2c1)C(c1cccc(O)c1)N(Cc1ccccc1Cl)C3=O (configuration not stated) -28.1%, CCCOc1ccc(CN(C(=O)c2nc(SC(C)C)ncc2Cl)C2CCS(=O)(=O)C2)cc1 (configuration not stated) -18.2%, CCOc1ccc(/C=C/c2nc(C#N)c(Nc3ccc(OC)cc3)o2)cc1 3.45%, N#Cc1ccccc1Cn1c(=O)n(Cc2ccc(C(=O)NC3CCN(Cc4ccccc4)CC3)cc2)c(=O)c2ccccc21 -8.9%, Fc1ccc(-c2ccc(CNCCSc3nnnn3-c3ccccc3)o2)cc1Cl -29.5%, O=C(Nc1c(C(=O)Nc2cccc(F)c2)oc2ccccc12)c1cc2ccccc2o1 -5.89%, CCNC(=O)c1ccc2nc(Cc3ccccc3)oc2c1 33.2%, COc1cc2[nH]c(=O)n(CCCCCC(=O)NCCc3ccccc3)c(=O)c2cc1OC -9.01%, CCOC(=O)c1c(NC(=O)COc2cccc(C(F)(F)F)c2)sc2c1CCCCC2 -12.3% [at 11.5 µM], CC(C)COc1ccc(C(=O)N2CCN(CCc3ccccn3)CC2)cc1 -14.1%, COc1cccc(C2c3c(-c4ccccc4O)n[nH]c3C(=O)N2CCc2ccc(OC)c(OC)c2)c1 (configuration not stated) -29.9%, CCOc1nc(-c2ccc(C)cc2)ccc1-c1noc(-c2ccccc2F)n1 -8.69%, CCc1ccc(-c2nc(-c3cc4ccccc4oc3=O)sc2C)cc1 -6.46%, Cc1ccc(Sc2c(C(=O)NCc3ccccc3C)[nH]c3ccccc23)cc1 3.18%, Nc1ncnc2c1c(-c1cccc(OCc3ccccc3)c1)cn2C1CC(CN2CCCC2)C1 (configuration not stated) -27.4%, Cc1ccc(-c2nc3ccc(Cl)cn3c2Nc2ccc3c(c2)OCCO3)s1 36.4%, COc1ccc(CNC(=O)CN2C(=O)CCCc3ccccc32)cc1 20.4%, CCN(CC)S(=O)(=O)c1ccc2oc(C(=O)Nc3ccc(Br)cc3F)c(C)c2c1 -14.1%, COc1ccc(CCNC(=O)CCc2c(C)c3cc4c(C)c(C)oc4cc3oc2=O)cc1 1.29%, COc1ccc(NC(=O)CC(C)n2nc(C)cc2C)cc1Cl (configuration not stated) -4.24%, CCOc1ccc(CCNC(=O)Cn2ncn3c(cc4ccccc43)c2=O)cc1OCC -4.66%, CCn1c(C(=O)Nc2cc(Cl)ccc2C)cc2sc(Cl)cc21 -29.6%, Cc1cccc(-n2ccnc2SCC(=O)Nc2nc3ccccc3s2)c1 -5.15%, CCOC(=O)C(=O)Nc1c(C(=O)Nc2cccc(F)c2)oc2ccccc12 -1.46%, COc1ccccc1N1CCN(c2nc3c(S(=O)(=O)c4ccc(C)c(C)c4)nnn3c3ccc(Cl)cc23)CC1 -8%, CCN(CCCNC(=O)c1nn(-c2ccc(OC)c(Cl)c2)c(=O)c2c1c1ccccc1n2C)c1cccc(C)c1 -15.9%, Cc1cccc(-c2nc(SCC(=O)NCc3ccco3)c3c(=O)n(C)c(=O)n(C)c3n2)c1 -1.34%, Cc1ccc(Cn2c(CNS(=O)(=O)c3ccc(Cl)s3)nc3cccnc32)cc1 -2.06%, CCc1ccccc1Nc1cc(C(=O)NC2CCC(C)CC2)c2ccccc2n1 (configuration not stated) 39%, CCc1c(C)sc(NC(=O)C2c3ccccc3Oc3ccccc32)c1C(=O)OC(C)C -4.17%, CN(C)c1ccc(C2Nc3ccc4ccccc4c3C3=C2C(=O)CC(C)(C)C3)cc1Br (configuration not stated) -12.5%, COc1ccc(CNC(=O)c2cc(-c3ccc(C)c(C)c3)n[nH]2)cc1 51.3%, CCOC(=O)c1cccc(NC(=O)C2CCCN(c3nnc(C)c4c(C)n(-c5ccccc5)nc34)C2)c1 (configuration not stated) -3.36%, COc1ccc(OC)c(C2C(C(=O)Nc3ccccc3OC)=C(C)Nc3c(C(=O)Nc4ccc(F)cc4)cnn32)c1 (configuration not stated) -16.1%, Cc1ccc(-c2nnc3ccccc3c2C(=O)Nc2cccc(Cl)c2)cc1 10.4%, Cn1c(=O)c(=O)n(C)c2cc(N3CCOCC3)c(NS(=O)(=O)c3ccc(F)c(Cl)c3)cc21 -8.73%, COc1ccc(NC(=O)c2cc3cc(C)ccc3n2C)cc1 3.13%, CC(C)(C)OC(=O)N1CCC(c2c(C(=O)NCc3ccc4c(c3)OCO4)cnn2-c2ccccc2Cl)CC1 1.95%, COc1ccc(C(=O)Nc2nnc(S(=O)(=O)N(CC(C)C)c3ccccc3)s2)cc1 -5.88%, COc1ccc(NC(=O)c2ccc3c(c2)nnn3C2CCCC2)cc1Cl -15.4%, Cc1ccc(Cl)cc1NC(=O)c1ccc2snnc2c1 -10.3%, COc1cc(NC(=O)NCCn2nnc3cc(S(=O)(=O)N(C)C)ccc32)cc(OC)c1 -6.43%, CC1=C(C(N)=O)C(c2ccc(F)cc2)n2nc(-c3ccc(N(C)C)cc3)nc2N1 (configuration not stated) -15.2%, CNS(=O)(=O)c1cn(CC(=O)Nc2ccc(C)c(N(C)C)c2)cc1S(=O)(=O)NC 7.6%, Cc1ccc2c(=O)c(C(=O)c3ccc(F)cc3)cn(CC(=O)NCc3ccccc3Cl)c2n1 1.09%, Cc1ccc(-c2nn(CC(=O)NC3CCCCC3)c3c2cnc2ccccc23)cc1 0%, Oc1ccc(C(O)CNCCCCCCNCC(O)c2ccc(O)c(O)c2)cc1O (configuration not stated) -5.64%, CCCCCc1ccc(-c2ccc(C(=O)Oc3ccc(C(=O)OC)cc3)cc2)nc1 -29.3%, COc1ccc(CNc2nc(-c3ccc(Cl)cc3)nn2C(=O)c2ccccc2)cc1 -2.17%, COc1ccccc1CNC(=O)c1ccc(CSc2nc3ccncc3n2Cc2ccccc2C)cc1 -33.6%, Cc1ccc(S(=O)(=O)C2(C(=O)Nc3ccc(C(C)C)cc3)CC2)cc1 50.1%, Cc1ccc(-n2ncc(C(=O)N3CCN(c4ncccn4)CC3)c2C2CCN(C(=O)OC(C)(C)C)CC2)cc1 1.55%, Cc1cc(C)cc(N2C(=O)CS(=O)(=O)C23C(=O)N(C)c2ccccc23)c1 (configuration not stated) -9.52%, Cc1nc(-c2ccc(S(=O)(=O)N(C)Cc3ccccc3)cc2)co1 -3.87%, CCn1c2ccccc2c2nnc(N3CCN(c4ccc(OC)cc4)CC3)nc21 5.1%, CCOC(=O)Cn1nc(C)c(NC(=O)COc2ccc(C)c(C)c2)c1C 16.6%, CCN(CC)C(=O)CSc1cn(CC(=O)N2CCCCCC2)c2ccccc12 -8.1%, Cc1ccc(NC(=O)C2CCN(c3nc4ccccc4nc3C(F)(F)F)CC2)cc1C -9.74%, CCCN(CCC)S(=O)(=O)c1ccc(N2CCCCS2(=O)=O)cc1 -23.1%, COc1cc2ncnc(Nc3cc(Br)c(O)c(Br)c3)c2cc1OC -20.4%, Fc1ccc([C@@H]2Nc3ccccc3[C@@H]3C=CC[C@@H]32)cc1 -22.3%, Cc1ccc(C)c(NC(=O)CSc2ncc3c(n2)-c2ccccc2N(Cc2ccccc2C)S3(=O)=O)c1 -14.2%, COc1ccc(/C=C/c2nc(C#N)c(N3CCCCCC3)o2)cc1OC -15.7%, O=C(Cn1cc(S(=O)(=O)c2ccc(Cl)cc2)c(=O)c2ccccc21)Nc1ccc2c(c1)OCO2 -30%, COc1ccc(CNS(=O)(=O)c2ccc3c(c2)NC(=O)C(C)C(=O)N3)cc1 (configuration not stated) -20.7%, Cc1nnc(N2CCC(C(=O)N3CCCCC3)CC2)c2nn(-c3ccccc3)c(C)c12 -13.9%, Cc1ccc(C)c(Nc2ncnc3c2cnn3-c2ccc(F)cc2)c1 31.1%, COc1ccc(CNc2n[nH]c(-c3ccco3)n2)cc1OC -9.71%, CCc1ccc(Nc2ncnc3sc4c(c23)CCCC4)cc1 -23.8%
